Some of the results follow. Further columns of the screen follow, without active or inactive calls. The note in brackets gives the kind of curve behind each potency; many fits are weak.

Data on 17 molecules can be found in PubChem BioAssay (NCATS).
Tags describe the fitted curve by direction and shape.

The assay is described as follows: qHTS drug screen for cell cycle checkpoint inhibitors in PARPi-resistant BRCA-mutant ovarian cancer cell lines. (AID 1963452). Conditions: PEO1/OlaR viability, CellTiter-Glo luminescence, 96 h; measured here: PEO1 parental viability. In a few lines:
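PEO1, PEO4 and PEO1/OlaR ovarian cancer cells, 600 per well, exposed 96 h at 37C to a dilution series. Viability read by CellTiter-Glo luminescence, normalized to DMSO and empty wells; activity summarized as Z-AUC.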
A general note: In qHTS, concentration-response curves come from the screen itself.
For `CNS(=O)(=O)Nc1nccc(Cc2c(C)c3ccc(Oc4ncccn4)cc3oc2=O)c1F`, the AC50 (in general, the midpoint of the concentration-response curve, whichever way the signal moves) is 6.16 µM [falling, partial curve].

Take `O=C(O)C1=CO[C@@H](O[C@@H]2O[C@H](CO)[C@@H](O)[C@H](O)[C@H]2O)[C@@H]2C(CO)=CC[C@H]12`: the AC50 was 0.616 µM [rising, full curve, poor fit].

`CO[C@H]1C[C@@H]2CC[C@@H](C)[C@@](O)(O2)C(=O)C(=O)N2CCCC[C@H]2C(=O)O[C@H]([C@H](C)C[C@@H]2CC[C@@H](OC(=O)C(C)(CO)CO)[C@H](OC)C2)CC(=O)[C@H](C)/C=C(\C)[C@@H](O)[C@@H](OC)C(=O)[C@H](C)C[C@H](C)/C=C/C=C/C=C/1C`: the AC50 is 0.0095 µM [falling, full curve].

`CC1CCC(n2c3cnccc3c3cnc(Nc4ccc5c(n4)CCN(C(=O)CO)C5)nc32)CC1` (configuration not stated): the AC50 was 1.12 µM [rising, partial curve, poor fit].

Consider `C=C1[C@H](CO)[C@@H](O)C[C@@H]1n1cnc2c(=O)[nH]c(N)nc21`, for which the AC50 was 0.871 µM [rising, full curve].

`C/C(O)=C(\C#N)C(=O)Nc1ccc(C(F)(F)F)cc1`: the AC50 was 6.92 µM [falling, partial curve, poor fit].

Regarding `COc1nc(N)nc2c1ncn2C1OC(CO)C(O)C1O` (configuration not stated), the AC50 was 6.16 µM [falling, partial curve, poor fit].

As for `OCc1ccccc1O[C@@H]1O[C@H](CO)[C@@H](O)[C@H](O)[C@H]1O`, the AC50 is 21.9 µM [rising, partial curve, poor fit].

For the molecule `Cc1cc2c(F)c(Oc3ncnn4cc(OC[C@@H](C)OC(=O)[C@H](C)N)c(C)c34)ccc2[nH]1`, the AC50 was 0.436 µM [falling, full curve].

On to `Cc1nc2ccc(C(=O)N3CCC4(CC3)CC(=O)c3c(cnn3C(C)C)C4)cc2[nH]1`, for which the AC50 was 15.5 µM [falling, single point].

As to `CCCCCCCCCCCCc1ccc(S(=O)(=O)Nc2nncs2)cc1`, the AC50 was 4.36 µM [rising, full curve, poor fit].

For the molecule `Cc1cc(OCCCS(C)(=O)=O)cc(C)c1-c1cccc(COc2ccc3c(c2)OC[C@H]3CC(=O)O)c1`, the concentration at half-maximal activity (AC50) is 0.871 µM [falling, full curve, poor fit].

For the molecule `CC#CC(=O)N1CCC[C@H]1c1nc(-c2ccc(C(=O)Nc3ccccn3)cc2)c2c(N)nccn12`, the half-maximal activity concentration (AC50) is 0.006 µM [rising, full curve, poor fit].

Consider `O=C(C(c1ccccc1)c1ccccc1)N1CCN(CC(O)COc2cccc3ncccc23)CC1` (configuration not stated), for which the AC50 is 15.5 µM [falling, single point].

As for `COC(=O)N[C@@H](C)CNc1nccc(-c2cn(C(C)C)nc2-c2cc(Cl)cc(NS(C)(=O)=O)c2F)n1`, the AC50 was 17.4 µM [falling, partial curve, poor fit].

Regarding `Cc1c(-c2ccc(-c3ccccc3F)cc2)nc2ccc(F)cc2c1C(=O)O`, the AC50 is 0.049 µM [falling, full curve].

With `CC1(C)OC2=C(C(=O)c3ccccc3C2=O)[C@H](NCc2ccccc2)[C@@H]1O`, the AC50 is 7.76 µM [rising, partial curve, poor fit].
